Laboratory results reported in PubChem BioAssay AID686971 (National Center for Advancing Translational Sciences (NCATS), 2013).
Out of some 360,000 compounds screened, about 7,500 (2.1%) were called active. Inconclusive results, whose numbers are uncertain, are shown with a selection of clear calls. The call rests on the fitted dose curve; in most records, active means well fitted cell-killing curve with a large enough effect; inconclusive means small, poorly fitted or top-dose-only effect, or effect the other way, or another doubt; inactive means no such curve, though single readings can be large or run the other way. Potencies of inconclusive entries are left out as doubtful fits.
Potency means the concentration at half of the fitted maximal effect; tags describe the fitted curve by direction and shape.

Assay: qHTS for induction of synthetic lethality in tumor cells producing 2HG: qHTS for the HT-1080-IDH1KD cell line;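 on activity, negative = toxicity: 0% = DMSO wells and -100% = cell-free medium wells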
Settings: HT-1080 IDH1 knockdown viability, ATP luminescence, 48 h; activity, negative = toxicity: at 46.1 µM (top of the series) unless noted
Summary of the method: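 Viability of IDH1-knockdown HT-1080 fibrosarcoma cells was assessed by CellTiter-Glo after 48 h at 37 °C with titrated compound; concentration-effect curves were classified by fit quality and response size.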
With COc1cc2c(C#N)c(N3CCc4ccccc4C3)nc(N)c2c(N)n1 the Potency was inconclusive [cytotoxic, partial curve, poor fit].
With O=[N+]([O-])c1ccc(O)c(C2CCCCC2)c1 the Potency was active: 16.4 µM.
With CCCn1c(C(O)c2cccc(OC)c2)nc2ccccc21 (stereo unspecified) the “activity, negative = toxicity” value was inactive: -7.49%.
In the case of CC(C)c1ccc(NC(=O)c2ccc3c(c2)CCN3S(C)(=O)=O)cc1, the Potency is reported as inconclusive [cytotoxic, single point].
For CCc1ccc(OCC(=O)NC(NC(=S)Nc2ccccc2)C(Cl)(Cl)Cl)cc1 (stereo unspecified), the Potency was active: 16.4 µM.
For COc1cc(/C=C2\SC(=Nc3ccccc3)NC2=O)cc(Cl)c1O, the Potency was inconclusive [cytotoxic, partial curve].
With O=C(c1ccc(N2CCCS2(=O)=O)cc1)N1CCN(c2ccc(F)cc2)CC1 the Potency was inconclusive [cytotoxic, single point].
In the case of O=C(CN1CCN(c2nc(-c3ccccc3)cs2)CC1)NCc1ccc2c(c1)OCO2, the Potency is reported as inconclusive [cytotoxic, single point].
In the case of O=C(Nc1cccnc1Cl)c1cc(-c2ccc(F)cc2)on1, the Potency is reported as inconclusive [rising, partial curve].
For CC(NCC(O)COc1ccc2ccccc2c1)c1ccccc1 (stereo unspecified), the Potency was active: 13 µM.
With COc1cc(C(C)=O)ccc1Oc1ncnc2c1cnn2-c1ccc(C)c(C)c1 the “activity, negative = toxicity” value was inactive: 7.38%.
In the case of Cc1ccccc1-n1c(C)cc(/C=N/NC(=O)c2ccncc2)c1C, the Potency is reported as inconclusive [cytotoxic, single point].
With O=C(N/N=C/C(Br)=C\c1ccccc1)c1n[nH]c2c1CCC2 the Potency was active: 0.562 µM.
For CCc1nc(SCc2nc3ccccc3[nH]2)c2oc3ccccc3c2n1, the Potency was inconclusive [cytotoxic, single point].
In the case of Cc1c(Br)c([N+](=O)[O-])nn1CC(=O)N1CCc2ccccc2C1, the “activity, negative = toxicity” value is reported as inactive: 23.7%.
In the case of O=C(CCN1C(=O)/C(=C/c2ccc(F)cc2)SC1=S)Nc1cccnc1, the “activity, negative = toxicity” value is reported as inactive: 22.1%.
With O=C(N/N=C/c1ccccc1OC(F)F)c1cc(-c2ccncc2)nc2ccccc12 the Potency was active: 2.06 µM.
For Cc1cccc(/C=N/NC(=O)c2ccc(NC(=O)c3cccc(Cl)c3)cc2)n1, the Potency was inconclusive [cytotoxic, partial curve, poor fit].
With CC(=O)Nc1ccc(C2=CC(=O)CC(C)(C)C2)cc1 the “activity, negative = toxicity” value was inactive: 6.6%.
With COc1ccc(C(=O)OCC(=O)Nc2cccc(S(=O)(=O)NC3=NCCCCC3)c2)cc1[N+](=O)[O-] the “activity, negative = toxicity” value was inactive: -4.15%.
With O=C(NCc1ccco1)c1ccc(Cl)nc1 the “activity, negative = toxicity” value was inactive: 4.08%.
With O=C1NCC(O)=C1C=Nc1ccccc1O the Potency was inconclusive [cytotoxic, single point].
In the case of c1ccc2c(-c3csc(-c4ccncc4)n3)c[nH]c2c1, the Potency is reported as inconclusive [cytotoxic, single point].
In the case of CS(=O)(=O)Nc1ccc(C(=O)Nc2ccc3c(c2)OCO3)cc1, the Potency is reported as inconclusive [cytotoxic, partial curve].
With CCCc1c(-c2ccccc2Br)ncn1Cc1ccccc1OC the Potency was inconclusive [cytotoxic, partial curve].
For Cc1ccc(/C=C/C(=O)N2CC(C)CC(C)C2)o1 (stereo unspecified), the Potency was inconclusive [cytotoxic, single point].
With O=c1[nH]c(=O)c2cc([N+](=O)[O-])cc([N+](=O)[O-])c2[nH]1 the “activity, negative = toxicity” value was inactive: -11.3%.
With O=C(Cn1nc([N+](=O)[O-])nc1Br)NC(c1ccccc1)c1ccccc1 the “activity, negative = toxicity” value was inactive: 2.63%.
For COc1ccc(CNC(=O)C(c2ccc(C)o2)N(C(=O)c2csnn2)c2ccc(C(C)C)cc2)cc1 (stereo unspecified), the Potency was inconclusive [cytotoxic, single point].
For COc1ccc(-c2coc3cc(OC)cc(O)c3c2=O)cc1, the Potency was inconclusive [rising, full curve, poor fit].
In the case of COc1ccc(NC(=S)NCCSc2ccc(Cl)cc2)c(OC)c1, the Potency is reported as inconclusive [cytotoxic, single point].
In the case of Cc1nc(NC(=O)c2ccccc2)sc1-c1csc(N)n1, the Potency is reported as inconclusive [cytotoxic, full curve].
For O=C1CCC(C(=O)O)N1 (stereo unspecified), the “activity, negative = toxicity” value was inactive: 9.36%.
For COc1ccc(/C=C/C(=O)N2CCN(C)CC2)cc1OC, the “activity, negative = toxicity” value was inactive: 0.0883%.
For Cc1ccc(C(=O)Nc2cccc(C(=O)NCc3ccco3)c2)cc1, the Potency was inconclusive [cytotoxic, full curve].
With Nc1c(C(=O)Nc2ccc3c(c2)OCCO3)nnn1Cc1ccccc1 the Potency was inconclusive [cytotoxic, single point].
In the case of Clc1ccc(Cn2ncc3c(NCc4ccccc4)ncnc32)cc1, the Potency is reported as active: 4.61 µM.
For OCC1(Cc2ccc(F)cc2F)CCCN(Cc2ccc(Cl)cc2)C1 (stereo unspecified), the Potency was inconclusive [cytotoxic, partial curve].
In the case of CCN(c1ccccc1)S(=O)(=O)c1cc(C(=O)Nc2cccc(Cl)c2)ccc1F, the Potency is reported as inconclusive [cytotoxic, partial curve].
For CC(C)Oc1ccc(Br)cc1C(=O)N/N=C/c1c[nH]c2ccccc12, the Potency was inconclusive [cytotoxic, single point].
For Cc1cc(Cl)c(S(=O)(=O)NC2CCCCC2)cc1OCC(=O)Nc1nncs1, the Potency was inconclusive [cytotoxic, single point].
In the case of CCC(=O)c1ccc(OCC(=O)Nc2cc(S(=O)(=O)N3CCCCC3)ccc2N2CCN(CC)CC2)cc1, the Potency is reported as inconclusive [cytotoxic, single point].
With Cc1cc(SCC(=O)OC/C(O)=C(\C#N)c2nc3ccccc3[nH]2)c(C)cc1Br the Potency was inconclusive [cytotoxic, single point].
With C=C1C(=O)OC2C=C(CO)CCC=C(CO)CC(OC(=O)C(C)C)C12 (stereo unspecified) the Potency was active: 13 µM.
With COc1ccc(NC(=O)CN(C)C(=O)/C=C/c2ccc(OCc3ccccc3)cc2)cc1 the activity, negative = toxicity was inconclusive: -19.2% [cytotoxic].
With Cc1ccc2c(CSc3nc4ccccc4c(=O)n3CCCO)cc(=O)oc2c1C the Potency was inconclusive [cytotoxic, single point].
